Data on 79 molecules can be found in PubChem BioAssay (NCI).

Where “and” joins values, the source holds several entries; their conditions need not be identical. Equal values may be shown once.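 Cells were grown in 96-well plates and exposed to each compound for 48 hours at five concentrations; endpoints were interpolated linearly between bracketing concentrations, or set to the highest concentration if not reached. GI50: concentration for 50% inhibition of growth. TGI: concentration producing complete growth inhibition.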

The assay concerns NCI-H322M lung. Put plainly: NCI-60 cell line screen, 48 h.
Take `Cc1ccc(S(=O)(=O)OC2CC(C(C)(C)C)CCC2c2ccccc2)cc1` (stereo not drawn): the TGI was more than 100 µM.
`OCCCCC#Cc1ccccc1C#Cc1cccc(C(F)(F)F)c1`: the GI50 was 16.4 µM and the TGI turned out to be 30.6 µM.
In the same order, the values of `C=C(CN1CCc2[nH]c3ccc(F)cc3c2C1)c1ccc(C(=O)Nc2ccccc2N)cc1` are 5.26 µM and 20 µM.
For `CCN(CC)c1ccc2nc3ccc(=[N+](CC)CC)cc-3oc2c1`, in that order: 0.124 µM and 3.47 µM.
As for `CCOC(=O)C1S(=O)(=O)OCCOS1(=O)=O`, the TGI was more than 100 µM.
Same read-out and setting: to `COc1ccc(/C=C2\C(=O)N(NC(C)=O)c3ccccc32)cc1` belongs more than 100 µM; to `Clc1ccc(C=Nc2ccc(Oc3ccc(Cl)cc3)c(Cl)c2)cc1`, 61.5 µM.
On the same count and under the same terms, under `CCOC(=O)/C(=C\c1cccc(C)c1)C(C)=O` stands 37.4 µM.
Consider `COc1cc([C@@H]2c3cc4c(cc3[C@@H](Nc3ccc(NC(=O)c5cc([N+](=O)[O-])cn5C)cc3)[C@H]3COC(=O)[C@H]23)OCO4)cc(OC)c1O`, for which the GI50 was 2.04 µM and 0.751 µM; the TGI was more than 76.1 µM.
Turning to `COc1ccc2nc3c(c(N)c2c1)C1CCC3C1(C)C` (stereo not drawn), the TGI was more than 100 µM.
The same measure, in the same setting: to `C=CCC(CCC(C)=O)(C(=O)OCC)C(=O)OCC` belongs more than 100 µM; to `COC(=O)[C@@H]1[C@@H]2NC(=S)N[C@@]1(C)Oc1ccccc12`, more than 100 µM.
Same read-out and setting: to `CN1CCOC(C(NC(=O)c2ccccc2)c2ccccc2)C1=O` (stereo not drawn) belongs more than 100 µM; to `CCN(CC)CCNc1ccc([N+](=O)[O-])c2nc3ccc(OC)cc3c(NCCN(CC)CC)c12`, 3.85 µM; to `Cc1ccc(S(=O)(=O)N(CC(O)COc2ccccc2)c2c(F)cccc2F)cc1` (stereo not drawn), 94.4 µM.
Still for that read-out and setting: under `C[C@@H](CC(=O)OCc1ccccc1)OC1OC(COC(=O)C(C)(C)C)C(OC(=O)C(C)(C)C)C(OC(=O)C(C)(C)C)C1OC(=O)C(C)(C)C` (stereo partly drawn) stands more than 100 µM; under `C=C1CC[C@@H](CCC2CCC3(OC2)O[C@]2(O)CC[C@@]3(C)OC2(C)C)C(C)(C)[C@H]1C/C=C1\CCOC1=O` (stereo partly drawn), more than 100 µM.
Turning to `COc1cc(-c2nccc3[nH]c(-c4ccc5cc[nH]c5c4)nc23)cc(OC)c1OC`, the GI50 is less than 0.01 µM and the TGI came out at 11.7 µM.
In the same order, the values of `CCSCC1CC(O)(c2ccccc2)C(c2ccccc2)C(c2ccc(F)cc2)O1` (stereo not drawn) are 2.27 µM and 6.52 µM.
Consider `CC(=O)NC1C(O[C@H]2C[C@H]3[C@@H]4CC=C5C[C@@H](O)CC[C@]5(C)[C@H]4CC[C@]3(C)[C@H]2[C@H](C)C(=O)CCC(C)C)OCC(O)C1O` (stereo partly drawn), for which the GI50 is 6.14 µM and the TGI was determined as 24.9 µM.
For the molecule `Cc1cccc(Cn2cc(CO)c3cnccc32)c1`, the GI50 is more than 100 µM and the TGI is more than 100 µM.
In turn, `CCCCCCCCCCCCCCCCCCNc1ccn(C2OC(COP(=O)(O)OCC3OC(n4ccc(N)nc4=O)C(O)C3O)C(O)C2O)c(=O)n1` (stereo not drawn) displayed a TGI of more than 100 µM.
Same read-out and setting: to `COC(=O)C(C(=O)C(=O)Nc1c(Cl)cc([N+](=O)[O-])cc1Cl)c1csc(-n2nc(C3=CCCCC3)cc2-c2ccccc2)n1` (stereo not drawn) belongs more than 100 µM; to `COc1ccc2c(C(=O)O)cc3ccccc3c2c1OC`, more than 100 µM.
Take `CCOC(=O)C1=C(NC)OCC1=O`: the TGI was more than 100 µM.
Same read-out and setting: to `Cc1noc(NC(=O)Nc2ccccc2F)c1C#N` belongs more than 46.1 µM; to `O=[N+]([O-])c1ccc(-c2ccc(C3=Nn4c(CNc5ccccc5Cl)nnc4SC3)o2)cc1`, more than 100 µM.
Regarding `COC(=O)/C=C(\C(=O)OC)c1cc(C)c2cc(C(C)C)ccc(C)c1-2`, the TGI is more than 100 µM.
Consider `CCC(c1ccccc1)c1noc(CCN(CC)CC)n1` (stereo not drawn), for which the GI50 was 37.3 µM and the TGI is more than 100 µM.
Regarding `Oc1ccc(C(=C(Br)c2ccccc2)c2ccc(O)cc2)cc1`, the TGI was 20.5 µM.
On to `COC(=O)c1c(C)cccc1/C=C1\Cc2ccc(C)c(C)c2C1=O`, for which the TGI was more than 100 µM.
On the same count and under the same terms, to `C[C@@H]1CC[C@]2(C)C3(C)CC[C@]2(OC3=O)[C@@]12CC(c1ccoc1)OC2=O` (stereo partly drawn) belongs more than 100 µM.
Still for that read-out and setting: to `N#Cc1c(NC(=O)C(F)(F)F)sc2c3c(=O)c4ccccc4c(=O)c=3oc3ccccc3c12` belongs 42.4 µM; to `Cc1ccc(N=N/C(=N/NC(=O)c2ccccc2)c2ccc(N(CCC#N)CCC#N)cc2C)cc1`, more than 100 µM; to `O=C1c2cc(O)c(O)cc2O[C@H](c2ccc(O)c(O)c2)[C@H]1O`, more than 100 µM.
Still for that read-out and setting: to `O=C(c1ccccc1)C1(Br)S(=O)(=O)OCCOS1(=O)=O` belongs more than 100 µM.
Turning to `Cc1ccc(NC(=O)c2cc(S(=O)(=O)Nc3nnc(-c4ccccc4)c(-c4ccccc4)n3)c(SCc3ccccc3)cc2Cl)cc1`, the GI50 is 17.7 µM and the TGI amounted to 42.5 µM.
Turning to `O=C(Nn1c(-c2ccccc2)nc2ccccc2c1=O)c1ccc(Cl)cc1`, the TGI is more than 100 µM.
Take `CSc1nc2nc(-c3ccccc3)c(C)c-2c2n1C(C)C(=O)N2` (stereo not drawn): the GI50 was 69 µM and the TGI is more than 100 µM.
In the case of `COC12C(COC(=O)NCCO)C3=C(C(=O)C(C)=C(N)C3=O)N1CC1NC12` (stereo not drawn), the GI50 is 75.7 µM and the TGI amounted to 225 µM.
Consider `Cc1cc(C)c(-c2no/c(=N\S(=O)(=O)c3ccc(Cl)cc3)o2)c(C)c1`, for which the TGI is more than 100 µM.
`COc1ccc2ccccc2c1C1=NC(C)(C)CO1` gave a TGI of more than 100 µM.
Molecule `CCN1CCC(O)(c2ccc([N+](=O)[O-])cc2)C(C(=O)c2ccc([N+](=O)[O-])cc2)C1` (stereo not drawn) yielded a TGI of more than 100 µM.
Same read-out and setting: under `Cc1ccc(OCC2OC(n3cnc4c(Cl)nc(Nc5cc(Cl)cc(Cl)c5)nc43)CC2Oc2ccc(C)cc2)cc1` (stereo not drawn) stands more than 100 µM; under `CCOC(=O)/C(=C/c1ccccn1)C(=O)c1ccccc1`, 31 µM.
Turning to `COc1ccc(-c2[nH]c3ccc(OC)cc3c2C=C(C#N)C#N)cc1`, the GI50 is more than 100 µM and the TGI is more than 100 µM.
`COC(=O)[C@H](Cc1ccccc1)NC(=O)c1ccc(CNC(=O)/C=C/c2csc(-c3ccccc3)n2)cc1` yielded a TGI of 47.1 µM.
Still for that read-out and setting: under `CC(=O)c1ccc(N=NN2CCCC2)cc1` stands more than 100 µM; under `S=C1Cc2c(-c3ccccc3)cc(-c3cccc(Cl)c3)nc2-c2ccccc2N1`, 15 µM; under `COC(=O)c1cc(S(=O)(=O)NC2=NCC(C)NN2)c(S)cc1Cl` (stereo not drawn), more than 100 µM.
The same measure, in the same setting: under `O=C(CCc1cc(O)cc(O)c1)NCCc1cc(O)cc(OCc2ccccc2)c1` stands more than 100 µM; under `O=[N+]([O-])c1ccc(/C=N/Nc2nc3ccccc3[nH]2)o1`, 63.6 µM.
Still for that read-out and setting: under `NNc1nnc(CCCCCCCCc2nnc(NN)n2N)n1N` stands more than 100 µM; under `CC12OC(=O)C(C#N)C1(C)C1C(=O)CCCC12` (stereo not drawn), more than 100 µM; under `CCN(/C=C1/C(=O)C(c2ccccc2)N(c2ccccc2)C1=O)CC` (stereo not drawn), more than 10 µM.
Regarding `CCOC(=O)C1(C/C=C\CBr)CCCC1=O` (stereo not drawn), the TGI was more than 100 µM.
The same measure, in the same setting: to `O=C(c1ccc(Cl)cc1)C1OC12C(=O)Nc1c(Cl)cc(Cl)cc12` (stereo not drawn) belongs more than 100 µM.
With `COc1cc(/C=C/c2cc(/C=C/c3ccc(O)c(OC)c3)n(C(=O)c3ccccc3Br)n2)ccc1O`, the GI50 is 3.5 µM and the TGI worked out at 40.1 µM.
For `c1ccc(COC[C@H]2O[C@@H](c3ccccc3)C[C@@H](OCc3ccccc3)C2OCc2ccccc2)cc1` (stereo partly drawn), the TGI was more than 10 µM.
On to `COc1ccccc1CNCCN1C(=O)c2ccc3c4c(ccc(c24)C1=O)C(=O)N(CCNCc1ccccc1OC)C3=O`, for which the GI50 is 0.236 µM and the TGI amounted to 0.698 µM.
Regarding `N#Cc1ccc(Sc2nc3ccccc3[nH]2)cc1`, the TGI is more than 100 µM.
On the same count and under the same terms, to `CCN1/C(=C/C#C/C(C)=C\c2sc3ccc(Cl)cc3[n+]2CC)Sc2ccc(Cl)cc21` belongs 10.4 µM; to `COc1ccccc1C1c2cc3c(cc2OC2(OC)COC(=O)C12)OCO3` (stereo not drawn), more than 92.8 µM; to `COC1(OC)CCc2c(sc3ncnc(Nc4cccc(Br)c4)c23)C1`, 71.5 µM.
On the same count and under the same terms, under `C1CCC(N=C2N(C3CCCCC3)C(=NC3CCCCC3)N2C2CCCCC2)CC1` stands more than 100 µM; under `NC1=NC2(COC(c3ccccc3)(c3ccccc3)c3ccccc3)OC(COC(c3ccccc3)(c3ccccc3)c3ccccc3)C(O)C2O1` (stereo not drawn), more than 100 µM.
In the case of `O=C(c1cccs1)c1c(C(F)(F)F)n([O-])c2cc(Cl)c(Cl)cc2[n+]1=O`, the GI50 was 1.9 µM and the TGI is 3.38 µM.
`CC(C)(CN1CCCCC1)C(=O)/C=C/c1ccc(Br)cc1` gave a TGI of 12.8 µM.
In the case of `Nc1nc(=S)c2ncn(C3OC(COP(=O)(O)O)C(O)C3O)c2[nH]1` (stereo not drawn), the GI50 is 5.31 µM and the TGI is more than 100 µM.
With `CC[C@H](C)[C@H](NC(=O)[C@H]1CCCCN1C)C(=O)N(C)[C@H](C[C@@H](OC(C)=O)c1nc(C(=O)NC23CC(C(=O)OC)(C2)C3)cs1)C(C)C`, the GI50 was 0.00476 µM and 0.026 µM; the TGI was more than 32.5 µM.
In the case of `COCCN(Cc1ccc(F)cc1)c1ccc(CO)c(Cl)c1`, the GI50 is 43.9 µM and the TGI is more than 100 µM.
In the same order, the values of `CN(C)c1ccc(-c2cc(-c3ccc(Nc4nc(Nc5ccc(Cl)cc5)nc(Nc5ccc(Cl)cc5)n4)cc3)nc(N)c2C#N)cc1` are more than 100 µM and more than 100 µM.
For `CN1CCN(c2c(F)cc(NC3=C(Cl)C(=O)c4ncccc4C3=O)cc2F)CC1`, in that order: 16.2 µM and 30.4 µM.
Molecule `CSc1nncc(-c2cc3c(c(SC)n2)CCCC3)n1` showed a TGI of more than 100 µM.
`C=C(C#N)C(=O)OCC(CC)CC.C=C(C#N)C(=O)OCC(CC)CC.CS(C)=O.CS(C)=O.Nc1c(N=Nc2ccc(-c3ccc(N=Nc4cc(S(=O)(=O)[O-])c5ccccc5c4N)cc3)cc2)cc(S(=O)(=O)[O-])c2ccccc12.[Pt+2]`: the GI50 is 69.1 µM and the TGI is more than 100 µM.
Turning to `COc1cc(C(=O)/C=C/c2cccc(Nc3ccnc4cc(Cl)ccc34)c2)cc(OC)c1OC`, the GI50 was 1.52 µM and the TGI came out at 3.28 µM.
For `O=C(COc1ccc(/C=C2\Oc3ccccc3C2=O)cc1)Nc1nc2ccccc2s1`, in that order: more than 87.8 µM and more than 100 µM.
`N#CC1CC(c2ccccc2)Nc2cc(Cl)ccc2N1` (stereo not drawn) showed a TGI of more than 100 µM.
The molecule `CC(C)Cc1ccc(C(C)/C=C2\CCC(CN(C)C)C2=O)cc1` (stereo not drawn) had a TGI of 37.4 µM.
